In this test the target is T1, His-UCP (E2-EPF ubiquitin carrier protein), recombinant (human, UniProt Q16763 1-222).
T1 construct: E2-EPF ubiquitin carrier protein (UCP), human cDNA from the 21C Frontier Human Gene-Bank, full length cloned into pET28a; Host is probably E. coli BL21 (named only in the list of abbreviations); also called E2-EPF UCP; source: recombinant, pET28a, IPTG-induced, purified (Ni-NTA)
T1 sequence (looked up): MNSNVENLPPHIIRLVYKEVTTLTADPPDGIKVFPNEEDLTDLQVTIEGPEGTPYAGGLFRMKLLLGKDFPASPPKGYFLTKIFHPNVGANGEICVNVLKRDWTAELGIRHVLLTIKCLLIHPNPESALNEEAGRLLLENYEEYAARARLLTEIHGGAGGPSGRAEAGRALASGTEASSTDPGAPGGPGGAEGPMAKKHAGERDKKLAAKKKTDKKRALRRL
As to the kind of experiment: pull-down; recombinant mutant GST-VHL and His-UCP proteins mixed; GST pull-down; bound UCP detected by immunoblot. The settings on record: both partners purified. (In western blotting, separated proteins are transferred to a membrane and probed.)

B1: GST-pVHL V155A, recombinant (natural protein)
chain: not shown
notes: von Hippel-Lindau protein (pVHL), cloned by PCR from pFlag-VHL; Host is probably E. coli BL21 (list of abbreviations only); also called GST-VHL V155A; source: recombinant, pGEX-4T1, IPTG-induced, purified (glutathione sepharose 4B)
For the molecule B1, the binding result was “binds”.

B2: GST-pVHL Q164R, recombinant (natural protein)
chain: not shown
notes: von Hippel-Lindau protein (pVHL), cloned by PCR from pFlag-VHL; also called GST-VHL Q164R; source: recombinant, pGEX-4T1, IPTG-induced, purified (glutathione sepharose 4B)
In the case of B2, the binding result is “binds”.

B3: GST-pVHL L158Q, recombinant (natural protein)
chain: not shown
notes: von Hippel-Lindau protein (pVHL), cloned by PCR from pFlag-VHL; also called GST-VHL L158Q; source: recombinant, pGEX-4T1, IPTG-induced, purified (glutathione sepharose 4B)
In the case of B3, the binding result was “binds”.

Source of the values: article PMC4624580, “E2-EPF UCP regulates stability and functions of missense mutant pVHL via ubiquitin mediated proteolysis” (BMC Cancer, 2015).
